{"source": "ChEMBL document CHEMBL4888484", "about": "“Replenishing the malaria drug discovery pipeline: Screening and hit evaluation of the MMV Hit Generation Library 1 (HGL1) against asexual blood stage Plasmodium falciparum ,using a nano luciferase reporter read-out” (2022)", "note": "The campaign covered roughly 150,000 compounds. About 540 (0.36%) showed an effect of 50% or more. The list shows a part of the results."}
{"tested_on": "Plasmodium falciparum", "assay": "Primary screen in NF54 nanoGlo assay, in single point, at 2uM, 72h; a lower Z score goes with more inhibition", "assay_type": "functional, Erythrocyte", "settings": "timepoint 72 hour", "units": {"% Inhibition": "%"}}
{"smiles": "CC1(C)CN(C(=O)c2coc(C(N)=O)c2)C[C@@](C)(C(F)(F)F)O1", "% Inhibition": -12, "Z score": 1.55}
{"smiles": "Cn1c(CN2C[C@@H]3CC[C@H]2CN(Cc2ccccn2)C3)cc2cc(F)ccc21", "% Inhibition": -9, "Z score": 1.57}
{"smiles": "CO[C@H]1CCN(c2[nH]c(=O)n(C)c(=O)c2C#N)CC1(C)C", "% Inhibition": -5, "Z score": 0.68}
{"smiles": "O=C(c1c[nH]c2cc(Cl)ccc2c1=O)N1CCN(c2ccccc2)CC1", "% Inhibition": 0, "Z score": 0.03}
{"smiles": "c1ccc(-n2ncc3c(N4CCC[C@H]4c4ccccn4)ncnc32)cc1", "% Inhibition": -1, "Z score": 0.3}
{"smiles": "CCOC[C@H]1CCCN(C(=O)c2cc(=O)n(-c3ccc(C)cc3)[nH]2)C1", "% Inhibition": 1, "Z score": -0.09}
{"smiles": "CCC1(NC(=O)CCc2ccc(C)s2)CCOCC1", "% Inhibition": -7, "Z score": 0.94}
{"smiles": "Cc1nc(NCCCOC[C@H]2CCOC2)sc1S(N)(=O)=O", "% Inhibition": -5, "Z score": 0.45}
{"smiles": "CCc1cnc(C)nc1N1CCC[C@@]2(CCC(=O)N(CCOC)C2)C1", "% Inhibition": -7, "Z score": 1.37}
{"smiles": "C[C@H]1[C@@H]2[C@@H](O)C([C@H](C)C(=O)NCCN3CCOCC3)CC[C@@]2(C)CC[C@@H]1NC(=O)c1ccncc1", "note": "(some centres not stated)", "% Inhibition": 14, "Z score": -1.65}
{"smiles": "COc1ccc(CC(=O)N2CCN(c3cc(C)n4cnnc4n3)CC2)cc1OC", "% Inhibition": -12, "Z score": 1.54}
{"smiles": "CCn1nnc(NC(=O)c2ccc3c(c2)OCCO3)n1", "% Inhibition": -6, "Z score": 0.82}
{"smiles": "CCn1ccc(CN(C)Cc2cnn(C(C)C)c2)n1", "% Inhibition": 2, "Z score": -0.23}
{"smiles": "Cc1[nH][nH]c(=O)c1CC(=O)N1CCC[C@H](c2nc3ccccc3n2C)C1", "% Inhibition": 9, "Z score": -1.36}
{"smiles": "Cn1cc(NC(=O)[C@H]2CC(=O)N(c3[nH]nc4ccccc34)C2)cn1", "% Inhibition": 4, "Z score": -0.52}
{"smiles": "COCCn1ccnc1CNCCCc1ccccc1F", "% Inhibition": -9, "Z score": 1.16}
{"smiles": "Cc1nnc(N2CCC[C@@]3(C=Cc4ccccc4O3)C2)o1", "% Inhibition": 0, "Z score": -0.04}
{"smiles": "COc1ccc(N2C(=O)N[C@@H](CC(=O)N3CCC(c4ccccc4)CC3)C2=O)cc1", "% Inhibition": -14, "Z score": 2.3}
{"smiles": "COc1ccccc1[C@@H]1CC(c2cccc(C)c2)=NN1C(=O)CN1CCC(C)CC1", "% Inhibition": -11, "Z score": 2.14}
{"smiles": "O=C(c1ccc(Cl)c(S(=O)(=O)N2CCCCCC2)c1)N1CCC[C@H](C(F)(F)F)C1", "% Inhibition": 6, "Z score": -1.09}
{"smiles": "COc1ccc(-c2cnn3c(C)cc(C)nc23)cc1S(=O)(=O)Nc1c(C)cc(C)cc1C", "% Inhibition": -11, "Z score": 1.08}
{"smiles": "CCC(C)S(=O)(=O)NC(=O)C1CC=CCC1", "note": "(configuration not stated)", "% Inhibition": 3, "Z score": -0.42}
{"smiles": "Cc1cc(C(=O)NCCCOC[C@H]2CCCO2)no1", "% Inhibition": -13, "Z score": 1.7}
{"smiles": "CCc1cc(-c2cccc(C(=O)N3C[C@@H]4CC[C@H](C3)C(=O)N4)c2)nc(C)n1", "% Inhibition": -4, "Z score": 0.67}
{"smiles": "COc1ccnc(N2CCC3(CCC(=O)N([C@H]4CC[C@H](O)CC4)C3)CC2)n1", "% Inhibition": -7, "Z score": 1.5}
{"smiles": "COCc1cc(Cl)ccc1NC(=O)NC12CC1COC2(C)C", "note": "(configuration not stated)", "% Inhibition": -16, "Z score": 3.03}
{"smiles": "Cn1ncc(NC(=O)Cn2ccc3cc(-c4cccc5cccnc45)ccc32)n1", "% Inhibition": 3, "Z score": -0.64}
{"smiles": "COc1ccc(N2CCN(C(=O)c3ccc4c(c3)OCO4)[C@@H](C)C2=O)c(OC)c1", "% Inhibition": -5, "Z score": 0.58}
{"smiles": "Cc1nn(-c2ccc(F)cc2)c2nc(Cc3ccccc3)nc(N3CCCN(C(=O)c4cccc(Cl)c4)CC3)c12", "% Inhibition": 0, "Z score": 0.05}
{"smiles": "Cc1ccc(F)cc1C(=O)N1CC[C@H](N2CCN(C)CC2)[C@H](CCC(=O)O)C1", "% Inhibition": -6, "Z score": 1.13}
{"smiles": "COC1CCN(C2CCN(C(=O)Cc3ccc(Br)cc3)CC2)CC1", "% Inhibition": 1, "Z score": -0.19}
{"smiles": "O=C(NCc1cccnc1)c1ccc2c(=O)n(-c3cccc(Cl)c3)cnc2c1", "% Inhibition": -1, "Z score": 0.18}
{"smiles": "CNC(=O)NCC(=O)Nc1ccc2nc(OC)sc2c1", "% Inhibition": -6, "Z score": 0.68}
{"smiles": "CN1CCC(NC(=O)N(C)[C@@H](c2ccccc2)c2ccccn2)CC1", "% Inhibition": 6, "Z score": -0.66}
{"smiles": "COC(=O)c1c(NC(=O)[C@@H]2CCCO2)c2cc(N)cnc2n1CCc1ccccc1", "% Inhibition": -1, "Z score": 0.08}
{"smiles": "CCC(C)c1cc(C(=O)Nc2ccnn2C(C)C2CC2)on1", "note": "(configuration not stated)", "% Inhibition": -9, "Z score": 1.34}
{"smiles": "CC[C@@]1(CNCc2ccccc2)OCCc2ccccc21", "% Inhibition": 13, "Z score": -2.32}
{"smiles": "CN(C)C(=O)CN(C)S(=O)(=O)c1c(Br)cc(C(=O)C(Cl)(Cl)Cl)n1C", "% Inhibition": -2, "Z score": 0.14}
{"smiles": "CCCOc1ccccc1C#Cc1ccc(=O)n(CCO)c1", "% Inhibition": 24, "Z score": -3.08}
{"smiles": "Cc1cccc(C)c1C(=O)N1C[C@@H]2CN(C3CCCC3)C[C@]2(C(=O)O)C1", "% Inhibition": -9, "Z score": 1.41}
{"smiles": "Cc1nn(CC(=O)Nc2ccccc2)c(C)c1Cc1ccccc1", "% Inhibition": -12, "Z score": 1.82}
{"smiles": "O=C1CCN(C(=O)C2=CCCC2)CCN(c2nc3cc(Cl)cc(Cl)c3o2)CCN1", "% Inhibition": -3, "Z score": 0.48}
{"smiles": "Cc1[nH]c(C)c(S(=O)(=O)NCc2cccc(Cl)c2)c1-c1nnc(C2CC2)o1", "% Inhibition": -20, "Z score": 3.98}
{"smiles": "Cc1nn(CC(=O)N2[C@@H]3CC[C@H]2CNC(=O)C3)c(=O)n1Cc1ccccc1", "% Inhibition": 4, "Z score": -0.54}
{"smiles": "Cc1nn(-c2ccccc2)c(C)c1CN=C(N)N1CCCC1", "% Inhibition": -4, "Z score": 0.58}
{"smiles": "Cc1[nH]c2c(c1C(=O)N[C@@H](C)Cn1cncn1)C(=O)CCC2", "% Inhibition": -12, "Z score": 1.71}
{"smiles": "Cc1noc(C)c1Cn1nc2n(c1=O)C(=O)N(c1ccccc1)C2", "% Inhibition": 10, "Z score": -1.23}
{"smiles": "CCCc1nc(C)c(CN2CC(=O)N3CC[C@@H](O)C[C@H]3C2=O)s1", "% Inhibition": 3, "Z score": -0.34}
{"smiles": "O=C(C[C@H]1C(=O)NCCN1Cc1ccc2ccccc2c1)NC1CCCCCC1", "% Inhibition": -4, "Z score": 0.69}
{"smiles": "CC1=C(C(=O)NC(C)(C)c2nc3ccccc3n2C)CCCO1", "% Inhibition": -2, "Z score": 0.23}
{"smiles": "CC(C)N(CC(C)(C)O)C(=O)NCc1nnc(C(C)(C)C)s1", "% Inhibition": -4, "Z score": 0.41}
